PubChem BioAssay AID887 (National Center for Advancing Translational Sciences (NCATS), 2007)
About 1,100 (1.5%) of roughly 74,000 compounds were called active. Inconclusive results, whose numbers are uncertain, are shown with a selection of clear calls. Calls follow the shape of the dose curve; as a rule, active = well fitted inhibition curve with a large enough effect; inconclusive = small, poorly fitted or top-dose-only effect; inactive = no such curve, though single readings can be large or run the other way. No potency is given beside an inconclusive call; the fits are too rough.

Each molecule was assayed against Polyunsaturated fatty acid lipoxygenase ALOX15 (Homo sapiens) (UniProt P16050) (assay: qHTS Assay for Inhibitors of 15-hLO (15-human lipoxygenase)). Conditions: purified 15hLO-1, xylenol orange hydroperoxide absorbance; activity change, negative = inhibition: at 57.1 µM (top of the series) unless noted.
Chain of UniProt P16050 (P16050 whole entry, looked up): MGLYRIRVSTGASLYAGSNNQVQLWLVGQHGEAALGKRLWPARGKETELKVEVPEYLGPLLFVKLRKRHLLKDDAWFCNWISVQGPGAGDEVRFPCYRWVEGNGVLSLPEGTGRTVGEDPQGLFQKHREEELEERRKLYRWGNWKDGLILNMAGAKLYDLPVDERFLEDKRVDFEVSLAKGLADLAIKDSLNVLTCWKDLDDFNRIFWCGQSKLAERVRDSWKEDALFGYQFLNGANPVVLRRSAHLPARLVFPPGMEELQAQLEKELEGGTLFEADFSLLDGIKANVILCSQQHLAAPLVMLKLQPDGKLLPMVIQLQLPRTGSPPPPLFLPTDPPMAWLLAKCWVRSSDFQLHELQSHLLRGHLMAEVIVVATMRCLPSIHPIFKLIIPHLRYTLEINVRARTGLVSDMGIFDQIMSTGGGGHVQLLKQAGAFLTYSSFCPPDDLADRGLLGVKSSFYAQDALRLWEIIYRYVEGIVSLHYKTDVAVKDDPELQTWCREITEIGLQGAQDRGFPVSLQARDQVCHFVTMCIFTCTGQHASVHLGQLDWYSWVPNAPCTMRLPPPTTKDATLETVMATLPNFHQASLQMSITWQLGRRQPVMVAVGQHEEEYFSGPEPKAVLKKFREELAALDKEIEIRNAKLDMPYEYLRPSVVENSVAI
Procedure, shortened: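 Quantitative HTS in 25 mM Hepes pH 7.5 containing 0.01% Triton X-100: human 15hLO-1 at 40 nM, arachidonic acid at 50 uM, 6 min turnover. Product quantified via ferrous oxidation/xylenol orange, 573:405 nm absorbance ratio.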
% is scaled to controls: 0 for no effect and ±100 for the full control effect; potency is read from the fitted curve at half-maximal effect; tags tell the direction and shape of the fitted curve.
Also: nearly all actives have a fitted effect of over 55% in size.

SMILES	Potency	activity change, negative = inhibition
CCc1nn2cc(-c3ccccc3)nc2s1	active: 10 µM	–
O=C(O)CCC/C=C\C[C@@H]1CO[C@H](C(F)(F)F)O[C@@H]1c1ccccc1O	inactive	–
COc1cc(-c2nnc3sc(-c4ccccn4)nn23)cc(OC)c1OC	inactive	–
CCOC(=O)c1cc(C#N)c(N)nc1C	inactive	–
CC(C)NC[C@H](O)c1ccc(O)c(O)c1	inconclusive [inhibitor, full curve, poor fit]	–
CCOc1ccc(Nc2cc(C)nc(N3CCOCC3)n2)cc1	inactive	–
O=C(NC1CCCCC1)C(c1ccccc1)N(Cc1ccco1)C(=O)Cn1cnc2ccccc21 (configuration not stated)	inactive	–
CCC(O)c1cc2c(cc1NC(=O)c1ccc(C)cc1)OCCO2 (configuration not stated)	inconclusive [inhibitor, partial curve]	–
CN1CC=C2C(C#N)=C(N)C(C#N)(C#N)C(c3cccc(Cl)c3Cl)C2C1 (configuration not stated)	inconclusive [inhibitor, single point]	–
O=C(c1cccc(F)c1)N1CCC[C@@]2(CCN(c3cccc(-c4ccccc4)c3)C2)C1	inconclusive [inhibitor, single point]	–
CN1CCN(Cc2nc3c(c(=O)n(C)c(=O)n3C)n2Cc2ccccc2Cl)CC1	inconclusive [inhibitor, partial curve, poor fit]	–
Cc1ccccc1-c1cc(-c2ccccc2O)n[nH]1	active: 15.8 µM	–
Cc1ccc(N2C(=O)c3oc4ccccc4c(=O)c3C2c2cccc(O)c2)nc1 (configuration not stated)	inconclusive [inhibitor, single point]	–
Cc1cccc(C)c1OCC(=O)Nn1c(C)nc2ccccc2c1=O	inactive	–
Cc1cc(O)c(C=O)c2c1C(=O)Oc1c(COC(=O)/C=C/C(=O)O)c(O)c(C(=O)O)c(C)c1O2	inconclusive [inhibitor, single point]	–
CCOC(=O)Nc1ccc2c(c1)Nc1ccccc1S2	active: 31.6 µM	–
Cc1ccc(C)n1-c1cc(S(=O)(=O)N2CCOCC2)ccc1N1CCCC1	inconclusive [inhibitor, single point]	–
COc1ccc(NC(=O)c2cc(-c3ccc(C)o3)nc3ccccc23)cc1OC	active: 31.6 µM	–
S=C(c1ccc(-c2ccccc2Cl)o1)N1CCOCC1	inconclusive [inhibitor, partial curve]	–
Cc1ccc2cc3cc(C(=O)NCc4ccco4)oc3nc2c1	inactive	–
O=C(C1=C(O)C(=O)N(CCOCCO)C1c1cccs1)c1cccs1 (configuration not stated)	inconclusive [inhibitor, single point]	–
CCCn1c(=O)c(C(=O)NCc2ccc(OC)c(OC)c2)c(O)c2ccccc21	inactive	–
COc1cccc(-c2cc(C(F)(F)F)nc(N3CCCCC3)n2)c1	inconclusive [inhibitor, full curve]	–
COc1ccc(S(=O)(=O)N2CCC(C(=O)NCc3ccccn3)CC2)cc1C	inconclusive [inhibitor, single point]	–

SMILES	Potency	activity change, negative = inhibition
CN1CCc2c(sc3c2C(=O)NC(c2cn(Cc4ccccc4)c4ccccc24)N3)C1 (configuration not stated)	active: 3.16 µM	–
O=c1n(Cc2ccc(Cl)cc2)c2sc3c(c2c2ncnn12)CCCC3	inconclusive [inhibitor, partial curve]	–
O=C(c1cc(-c2ccco2)on1)N1CCCc2ccccc21	inconclusive [inhibitor, partial curve]	–
COc1cc(OC)cc(C(=O)N2CCN(Cc3ccccc3C(F)(F)F)CC2)c1	inconclusive [inhibitor, partial curve]	–
Cn1c(NCc2ccccc2Cl)nc2ccccc21	inactive	–
C=CCN1CCc2c(cc(O)c(O)c2Cl)C(c2cccc(C)c2)C1 (configuration not stated)	inconclusive [inhibitor, partial curve]	–
CCc1cc(C(=O)Cc2ccc(F)cc2)c(O)cc1O	inconclusive [inhibitor, single point]	–
CSCCC(NC(=O)c1cncc(Br)c1)C(=O)O (configuration not stated)	inconclusive [inhibitor, single point]	–
O=C(N/N=C1/C[C@@H](O)[C@@H](O)[C@@H]2[C@@H]3C(=O)N(C[C@@H]4CCCO4)C(=O)[C@H]3CC[C@H]12)OCc1ccccc1	inconclusive [inhibitor, full curve, poor fit]	–
COc1ccc2c(c1)Cc1sc(NC(C)=O)nc1-2	inactive	–
COc1cc2cc(C(=O)Nc3ccccc3)c(N)nc2cc1OC	inconclusive [inhibitor, partial curve]	–
CCN1CCN(CCCNC(=O)c2cc3sccc3n2CC)CC1	inactive	–
Cn1c(C(=O)NCCc2c[nH]c3ccccc23)cc2sccc21	inconclusive [inhibitor, single point]	–
O=C(NCc1ccco1)c1cc2ccccc2o1	active: 20 µM	–
COc1ccc2[nH]cc(CCNc3nc(-c4ccc(N(C)C)cc4)nc4ccccc34)c2c1	inconclusive [inhibitor, single point]	–
CCCCC(=O)Nc1cc(N(C)C)nc2ccccc12	inactive	–
CCCC(=O)Nc1nc2ccc(NC(=O)c3ccc(Br)o3)cc2s1	inconclusive [inhibitor, partial curve]	–
FC(F)(F)c1cc(-c2ccco2)nc(NCc2cccs2)n1	inconclusive [inhibitor, partial curve]	–
N#C[C@@H](Cc1ccc(O)c(O)c1)C(=O)N1CCc2ccccc21	active: 0.631 µM	–
Cc1ccc(N=Cc2ccc[nH]2)c(O)c1	inconclusive [inhibitor, partial curve]	–
CN(C)C(=O)c1ccc(-c2nccc(-n3ccnc3)n2)cc1	inconclusive [inhibitor, single point]	–
Cc1ccc2[nH]c(=O)c(C(c3nnnn3CC3CCCO3)N3CCCc4ccccc43)cc2c1 (configuration not stated)	active: 1.26 µM	–
Clc1cc(Cl)c2nc(N3CCCCC3)sc2c1	inconclusive [inhibitor, single point]	–
NC(=O)C/C=C\CC(N)=O	–	inactive: 11.4% [at 11.4 µM]

SMILES	Potency	activity change, negative = inhibition
CC(=O)c1cccc(NC(=O)NC2CCCCC2)c1	inconclusive [inhibitor, full curve]	–
C[C@@H]1O[C@@H](OC[C@H]2O[C@@H](Oc3c(-c4cccc(O)c4O)oc4cc(O)cc(O)c4c3=O)[C@H](O)[C@@H](O)[C@@H]2O)[C@H](O)[C@H](O)[C@H]1O	inactive	–
COc1ccc(-n2c(SCC(=O)Nc3nccs3)nc3c(c2=O)SCC3)cc1	inconclusive [inhibitor, partial curve]	–
Cc1cccn2c(=O)c3cc(C(=O)NCCN4CCOCC4)c(=N)n(CCc4ccccc4)c3nc12	inactive	–
O=C(O)CN(CC(=O)O)Cc1cc2c(-c3ccccc3C(=O)O)c3cc(CN(CC(=O)O)CC(=O)O)c(=O)cc-3oc2cc1O	inconclusive [inhibitor, partial curve]	–
Cn1c2ccc(F)cc2c2ncn(CCN3CCOCC3)c(=O)c21	inactive	–
O=C(Nc1nc(-c2cccnc2)cs1)c1ccc(S(=O)(=O)N2CCOCC2)cc1	inactive	–
COc1ccc2ccccc2c1C1CC(=O)N2CN(Cc3ccco3)CSC2=C1C#N (configuration not stated)	inconclusive [inhibitor, partial curve]	–
O=C(NCCSc1c[nH]c2ccccc12)c1ccc(Br)o1	active: 25.1 µM	–
Cc1nn(-c2ccc(F)cc2)c2nc(N)c(C#N)c(-c3cccs3)c12	inconclusive [inhibitor, partial curve]	–
COc1ccc(-n2c(=O)c(C)nc3cncnc32)cc1	inconclusive [inhibitor, single point]	–
O=C(COc1ccc(S(=O)(=O)N2CCc3ccccc32)cc1Cl)NCc1ccccn1	inconclusive [inhibitor, single point]	–
O=C(CC(=O)c1ccccc1)c1ccccc1	inconclusive [inhibitor, partial curve]	–
CCC(=O)Nc1cc(C)c(NC(=O)C23CC4CC(CC(C4)C2)C3)cn1	inactive	–
Oc1ccc2[nH]ccc2c1	inconclusive [inhibitor, partial curve]	–
O=C(CN(CCc1ccccc1)C(=O)CN1C(=O)COc2ccccc21)NCc1ccco1	inactive	–
COc1ccc(C[C@@H]2c3cc(OC)c(OC)cc3CC[N@+]2(C)CCC(=O)OCCCCCOC(=O)CC[N@@+]2(C)CCc3cc(OC)c(OC)cc3[C@H]2Cc2ccc(OC)c(OC)c2)cc1OC	inactive	–
CCOC(=O)c1sc2nc(N3CCOCC3)c3c(c2c1N)CC(C)(C)N(C)C3	inactive	–
Cc1noc(C)c1COC(=O)c1cc2c3ccccc3n(C)c2s1	inconclusive [inhibitor, full curve, poor fit]	–
COC(=O)C/C=C\[C@@H](C)[C@@H](/C=N\O[C@@H](C)c1cc(-c2c(C)cc(C)cc2C)no1)NS(=O)(=O)c1ccc(C)cc1	–	inactive: -6.56% [at 11.4 µM]
CS(=O)(=O)Nc1ccc([N+](=O)[O-])cc1OC1CCCCC1	inconclusive [inhibitor, single point]	–
O=C(Nc1cccc(N2CCCC2)c1)c1cccs1	inconclusive [inhibitor, single point]	–
COc1cc2[nH]c3c(N4CCN(c5ccccn5)CC4)ncnc3c2cc1OC	inactive	–
CSc1ccccc1NC(=O)c1noc2c1CCC2	inconclusive [inhibitor, partial curve]	–
